{"source": "paper PMC12136788", "binders": {"B1": {"name": "chr14:94519448:94519449:-_ENSG00000089737_ENST00000330836|hu_hu|motif|central (ssRNA)", "RNA": "GGGAGUUCUACAGUCCGACGAUCAGAGUUGUGCAGGCAAGCCUGGAAGUUCCGAUACUCAGAUUUCUCAAUCUGUCGAGCGGAACGGAUUCGCUCCUUGACCACAUCCAUGUAUUUUGUCUGCACGGGGAACAGUGGGAUAUCCAACAGAGGAUUGAGCAUCA"}, "B2": {"name": "chr4:25749455:25749456:-_ENSG00000091490_ENST00000264868|hu_hu|hu_hu_hu_mus_False|28_38 (ssRNA)", "RNA": "GGGAGUUCUACAGUCCGACGAUCGCACUAUGACCUCUAGAAAAAUCCACAGGGGGAAAAAAUGUAAACCAAUGUACAAUGUUAUCGCCUUCCCUGUAUUUCCAGGCACAAACAAUUGGCUCCUUCUAGCUGCUGGAUUUGGGACAACAGAGGAUUGAGCAUCA"}, "B3": {"name": "chr19:37063429:37063430:+_ENSMUSG00000040565_ENSMUST00000099494|mus_hu|motif|central (ssRNA)", "RNA": "GGGAGUUCUACAGUCCGACGAUCCAUAGCAUCCCAGAGAUGUGGCAACUUCACUGCCAUUUCACCACCAAAAUGCUUUACGGUAGUUGUCAAAGCAAAUUCAGCUCCUCUCCGUUGUACCAGGUAAGGCUUCUGGGCCUCAUCCAACAGAGGAUUGAGCAUCA"}, "B4": {"name": "chr1:204375296:204375297:-_ENSG00000158615_ENST00000367188|hu_hu|motif|central (ssRNA)", "RNA": "GGGAGUUCUACAGUCCGACGAUCGCCAACUCAACAUUGCUUGAGAACAUUAAGUCCUUUGAAGCAUGUUCCCUGGAGUCGGUUAAACAUUCUUUCUCUGUGUUCAAAUGUCAAGCAAUAUCCAAUAGCAUCUUCUGUUUCUUGCAACAGAGGAUUGAGCAUCA"}, "B5": {"name": "chr10:110404880:110404881:-_ENSMUSG00000035798_ENSMUST00000041723|mus_mus|motif|central (ssRNA)", "RNA": "GGGAGUUCUACAGUCCGACGAUCGUUUUUGUGAUACUUGUCACCAAGGUUAACUGAAACAUUGAAUGUUAAAAGCAAUCGGGUUGGAUCCACACUAUGUGUUCUAUAAGCUGCCCACAUUAAAGGGGUCAUUCCAUUCUGAUCCAACAGAGGAUUGAGCAUCA"}, "B6": {"name": "17230632_17270780_116_CDS_ENSG00000003987_ENST00000180173|human|control|control (ssRNA)", "RNA": "GGGAGUUCUACAGUCCGACGAUCUUCUUUUCUUGGGUCAGGUGAAUUUUCCACGAAUAUGACAUGGGUAGCCGUCAAAUACAAAGUACCUAGAGCUGCUUUUUUAGGAGACACUCGAUCUACCAAGCGGACAUUUUCAACCUUCAACAGAGGAUUGAGCAUCA"}, "B7": {"name": "91492014_91492134_263_3pUTR_ENSMUSG00000024109_ENSMUST00000160844|mouse|control|control (ssRNA)", "RNA": "GGGAGUUCUACAGUCCGACGAUCGAUAAGGCGACUGCUGCUGCCUUUUUCCGAGGCGUCAGGCUUGAGCGUCUAUCUCCAAGAGUGAGGAAGGGAAGAACAUGGAACAGAGAGGAGCAGCAGGGGGAGCAGGAGGAGGAGAGGCAACAGAGGAUUGAGCAUCA"}, "B8": {"name": "chr4:76572280:76572281:-_ENSG00000138757_ENST00000395719|hu_hu|FALSE|FALSE (ssRNA)", "RNA": "GGGAGUUCUACAGUCCGACGAUCCUUUAGCUCAUUUUCAUCAAUAUCAUGUGGCAAGUUACCAACAAAAAGUUGAUGACUAUCUGGAUAGCGAAUUAUUCUACGGUUGUCAGAGUCAUUCUGUUCCAUAUCUCCUCUGCCUGGCAACAGAGGAUUGAGCAUCA"}, "B9": {"name": "chr7:135839730:135839731:+_ENSMUSG00000042105_ENSMUST00000151237|mus_mus|motif|central (ssRNA)", "RNA": "GGGAGUUCUACAGUCCGACGAUCACGCUGAUGUUUUGAAUUACAGUGGUUCUUUUAAUAGUCACAAGACUUGACACUGCGGAUAAAUAACAAAAUCGGAAUGCUUGUCAGAGUUUUAACAGACAUAAUGUUAAACUGAGAGUCCAACAGAGGAUUGAGCAUCA"}, "B10": {"name": "42268982_42270895_591_3pUTR_ENSMUSG00000029861_ENSMUST00000143278|mouse|control|control (ssRNA)", "RNA": "GGGAGUUCUACAGUCCGACGAUCUUCCAUGACACCUGCUAGGAAACGUGCCUCCUUCUCGCCAUCACUGAGGUCAGAGUAGGCGUCUGUAUCCCUGCGCACAGCCUCAUGGCUAUGUUGUGGCUGAAUUGUUGGAGCCUUCCCCAACAGAGGAUUGAGCAUCA"}, "B11": {"name": "chr1:66486420:66486421:+_ENSMUSG00000015222_ENSMUST00000077355|mus_hu|FALSE|FALSE (ssRNA)", "RNA": "GGGAGUUCUACAGUCCGACGAUCUAAUGUAUUUUUUUUAAAUAGGGAGAGAACCCUGCUAACAUCUACUUUCACAUAUCUAAAAUUGCAACACCAAAGGGUGCAGGAGACACAGAUACUGUGAAUAAAGAAGUAUAAUAUUCACAACAGAGGAUUGAGCAUCA"}, "B12": {"name": "chr2:18084439:18084440:+_ENSMUSG00000026743_ENSMUST00000114669|mus_mus|FALSE|FALSE (ssRNA)", "RNA": "GGGAGUUCUACAGUCCGACGAUCUGAGCAGCGUAGGAGAUUUCUGAAGACUAGAGCUUGUUACACUUCCUGCAGCUGAUGCUACGGACGAUGUUGGUGAAGCAGAAGAAACUGAGAGGUGAGAAACAUUUUCUUGAUUUUUGUCAACAGAGGAUUGAGCAUCA"}, "B13": {"name": "chr11:77340908:77340909:-_ENSG00000074201_ENST00000525064|hu_hu|hu_hu_hu_mus_True|38_98 (ssRNA)", "RNA": "GGGAGUUCUACAGUCCGACGAUCGUUUGGAUCCCUGGAUAAUGCAUGUAAACUAAUGGUGGGGUAUUCCAGUGAGAAUCCUAAUCCCGAACCAUCUAACCAAGACAGGCGGCUCUCCGCGAUGUAAAGCGUGCCGGUGCCGAGCAACAGAGGAUUGAGCAUCA"}, "B14": {"name": "chr4:95690885:95690886:+_ENSMUSG00000028572_ENSMUST00000156910|mus_mus|mus_mus_mus_hu_False|58_68 (ssRNA)", "RNA": "GGGAGUUCUACAGUCCGACGAUCUUUAGAAAAUGUUAAAUACCAUGCUAAAAUAUUUUCAAAGGCUAGUCUUAUUUUACUAAAAGACACAGGCAAGCAGACACUACAAGAAUAUAUGAAAAUGAAACUCAACAAUAUAACUGUCAACAGAGGAUUGAGCAUCA"}}, "note": "The other results are listed elsewhere or left out.", "data": [{"target": "T1, UNK ZnF1-3 (human, UniProt Q9C0B0 31-174)", "T1 sequence": "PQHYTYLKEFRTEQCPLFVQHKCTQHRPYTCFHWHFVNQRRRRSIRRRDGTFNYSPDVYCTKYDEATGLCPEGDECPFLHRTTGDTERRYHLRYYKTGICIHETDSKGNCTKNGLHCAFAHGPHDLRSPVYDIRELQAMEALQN", "assay": "nsRBNS (natural sequence RNA bind-n-seq); RBNS binding buffer (assumed for nsRBNS): 25 mM Tris pH 7.5, 150 mM KCl, 3 mM MgCl2, 0.01% Triton X-100, 500 ug/ml BSA, 20 U/ml SUPERase-In, 4 C; UNK is unkempt and MSI1 is Musashi-1; names of the RNAs are library labels; protein concentration not given here; high values mean tight binding", "units": {"binding signal": "enrichment R"}, "values": [{"binder": "B1", "binding signal": 0.42}, {"binder": "B2", "binding signal": 1.07}, {"binder": "B3", "binding signal": 0.79}, {"binder": "B4", "binding signal": 0.332}, {"binder": "B5", "binding signal": 0.765}, {"binder": "B6", "binding signal": 0.76}, {"binder": "B7", "binding signal": 1.94}, {"binder": "B8", "binding signal": 0.756}, {"binder": "B9", "binding signal": 0.78}, {"binder": "B10", "binding signal": 0.423}, {"binder": "B11", "binding signal": 1.41}, {"binder": "B12", "binding signal": 1.39}, {"binder": "B13", "binding signal": 1.09}, {"binder": "B14", "binding signal": 1.47}]}]}
